Out of some 52,000 compounds screened, about 1,700 (3.3%) were called active. No stated cut-off is given here; in the data, active means survival mostly below about 52% (no sharp cut-off); inactive means mostly above about 56%. The list shows a part of the results.
What follows are compounds tested on Wild type (assay: S. aureus survival, RN4220 and DeltatarO strains – OD600, teichoic acid synthesis inhibitors, primary screen (AID 463173)). Conditions: S. aureus RN4220 wild type/DeltatarO growth, OD600, 18 h, stronger effect = lower value, screened at 18.75 µg/mL (by protocol).

| SMILES | survival |
| --- | --- |
| Cc1cc(=O)[nH]c(NCCO)n1 | inactive: 100% |
| COc1ccc(CCNC(=O)CCCn2c(SCC(N)=O)nc3cc4c(cc3c2=O)OCO4)cc1OC | inactive: 81% |
| CCOC(=O)N1CCc2c(sc3c2c(=O)n(Cc2ccccc2)c(=O)n3Cc2ccc(C)cc2)C1 | inactive: 96% |
| COc1ccc(NC(=O)C2(c3ccc(OC)cc3)CCOCC2)cc1 | inactive: 103% |
| CC1CCN(c2oc(-c3ccc(COc4ccc(Cl)cc4)o3)nc2C#N)CC1 | inactive: 110% |
| CCCCOc1ccccc1C(=O)Nc1onc2c1CCCC2 | inactive: 85% |
| CSc1ccc(CNC(=O)CCc2c(C)nn(-c3ccc(N4CCCC4)nn3)c2C)cc1 | inactive: 65% |
| COC(=O)C12CC3CC(CC(C(=O)OC)(C1)C3=O)C2=O | inactive: 103% |
| COc1ccc(CNC(=O)C2=C(C)C(=O)OC23CCN(C(C)=O)CC3)cc1 | inactive: 113% |
| Cc1cc(C)c2nc(NC(=O)c3ccc(S(=O)(=O)N4CCC(C)CC4)cc3)sc2c1 | inactive: 79% |
| CCOc1ccccc1CNC(=O)c1ccc(Cn2c(SCc3ccccc3)nc3cccnc32)cc1 | inactive: 69% |
| Cc1ccc(-c2noc(C3CCN(C(=O)Nc4ccc(C#N)cc4)CC3)n2)o1 | inactive: 102% |
| CCc1ccc2nc(SCC(=O)N3CC(=O)Nc4ccccc43)c(C#N)cc2c1 | inactive: 113% |
| CC(C)OC(=O)/C(C#N)=C/c1ccc(-c2ccc(Cl)c(Cl)c2)o1 | inactive: 78% |
| COC(=O)c1ccc(CSc2nnc(-c3ccccc3)o2)o1 | inactive: 113% |
| CCOC(=O)c1cc(-c2ccccc2)n(-c2cccc(C(=O)N(C)c3ccc(C)cc3)c2)c1C | inactive: 73% |
| CN1CCN(Cc2nc(N)nc(Nc3ccccc3)n2)CC1 | inactive: 104% |
| CC(C)C1Oc2ccccc2N(CC(=O)N(CCCN2CCOCC2)Cc2ccc(F)cc2)C1=O (stereo not drawn) | inactive: 117% |
| Fc1ccc(N2CCN(Cc3cccn3-c3nnc(N4CCN(C5CCCCC5)CC4)s3)CC2)cc1 | inactive: 128% |
| Cc1ccc(NC(=O)C2CCCN(c3cnccn3)C2)c(C)c1 (stereo not drawn) | inactive: 92% |

| SMILES | survival |
| --- | --- |
| CCc1ccc(-c2nc(CSCC(=O)N3CCN(c4ccc(F)cc4)CC3)c(C)o2)cc1 | inactive: 77% |
| O=C(Oc1ccccc1)c1ccc(-n2cnnn2)cc1 | inactive: 100% |
| CCc1ccccc1NC(=O)c1cc2c(Cl)nc3ccccc3c2s1 | inactive: 68% |
| CC(C)(CO)NC(=O)c1cc(-c2ccc(Cl)cc2Cl)on1 | inactive: 123% |
| CCOC(=O)c1ccc(NC2=CC(c3ccc(F)cc3)N(c3ccc(C(=O)OCC)cc3)C2=O)cc1 (stereo not drawn) | inactive: 68% |
| CCOc1ccccc1NC(=O)c1cc2c(=O)n(Cc3cccnc3)ccc2nc1C | inactive: 75% |
| CCCOc1cccc(C(=O)Nc2ccc(-c3cc4ccccc4oc3=O)c(C)c2)c1 | inactive: 102% |
| Cc1c(NC(=O)c2ccc(Br)o2)cccc1-c1nc2ccccc2o1 | inactive: 74% |
| Cc1cccc(C)c1NC(=O)CCS(=O)(=O)c1cccc2nonc12 | inactive: 65% |
| COC(=O)c1ccc(-c2nc3ccc(C)cc3o2)cc1 | inactive: 95% |
| CCOC(=O)c1c(C)[nH]c(C)c1S(=O)(=O)N1CCC(C(=O)Nc2ccc(C)c(Cl)c2)CC1 | inactive: 63% |
| CC(=O)Nc1ccc(Nc2ncnc3c2c(-c2ccccc2)cn3-c2ccc(C)c(Cl)c2)cc1 | inactive: 86% |
| O=C(Cc1ccccc1)NN1C(=O)CSC1=S | inactive: 110% |
| CCCSc1nc2sc3c(c2c(=O)n1-c1cccc(Br)c1)CC(C)(C)OC3 | inactive: 67% |
| Cc1ccccc1Cn1c(SCc2ccc(C(=O)NC3CCCC3)cc2)nc2ccncc21 | inactive: 93% |
| COc1ccccc1CNC(=O)CCNS(=O)(=O)c1cccc2nsnc12 | inactive: 84% |
| Cc1nc2c(c(C)nn2-c2ccccc2)c(C)c1CCC(=O)NCCc1ccc(Cl)cc1 | inactive: 99% |
| COc1cccc(NC(=O)N2CCN(C(=O)c3nsc4ccccc34)CC2)c1 | inactive: 72% |
| COc1ccccc1N=c1scc(-c2ccc(S(=O)(=O)N3CCCC3)cc2)n1C | inactive: 85% |
| O=C(O)CCC(=O)Nc1nc2ccccc2s1 | inactive: 104% |

| SMILES | survival |
| --- | --- |
| COc1cc(C2NC(=O)c3c(sc4c3CCN(C)C4)N2)ccc1OC(=O)c1ccccc1 (stereo not drawn) | inactive: 80% |
| COc1ccc(NC(=O)N2CCN3CCCCC3C2)cc1OC (stereo not drawn) | inactive: 95% |
| O=C(CCC(=O)N1CCc2ccccc21)N1CCc2ccccc21 | inactive: 105% |
| CN(c1ccccc1)N1C(=O)c2cccc3cccc(c23)C1=O | inactive: 119% |
| Cc1ccc(Cn2ccn(Cc3cccc(C(F)(F)F)c3)c(=O)c2=O)cc1 | inactive: 110% |
| COc1cccc(NC(=O)CSc2nc3c([nH]c4ccccc43)c(=O)n2-c2cccc(Cl)c2)c1 | inactive: 68% |
| C=CCOc1ccc(C2c3c(oc4ccc(C)cc4c3=O)C(=O)N2CCCN2CCOCC2)cc1 (stereo not drawn) | inactive: 74% |
| N#C/C(=C\C1CC=CCC1)c1nc2ccccc2c(=O)[nH]1 (stereo not drawn) | inactive: 109% |
| Cc1ccc(-c2ccc(=O)n(CC(=O)Nc3ccc(C(C)C)cc3)n2)cc1 | inactive: 99% |
| CCOC(=O)c1ccc(NC(=O)CSc2nc(C)c(Cc3ccccc3)c(=O)[nH]2)cc1 | inactive: 80% |
| Cc1ccc(-n2nc(C)c3c(C)cc(=O)n(CC(=O)NC(C)C)c32)cc1 | inactive: 119% |
| CCc1cccc(CC)c1N(COC)C(=O)Cn1c(C)nc2ccccc21 | inactive: 69% |
| CCN(CC)CCOC(=O)c1ccc(NC(=O)CSc2cc(=O)n(CC)c3ccccc23)cc1 | inactive: 137% |
| COc1ccccc1NC(=O)c1c(C)cc(C)nc1SCC(=O)Nc1cccc(C)c1 | inactive: 88% |
| COCCNC(=O)CCn1c(=O)c2cc(OC)c(OC)cc2n(CC(=O)Nc2ccccc2OC)c1=O | inactive: 89% |
| O=C(Nc1ccc(F)c(Cl)c1)C1Cc2ccccc2CN1S(=O)(=O)c1ccc(F)cc1 (stereo not drawn) | inactive: 77% |
| CCc1nn(CC(=O)Nc2ccc(C)cc2C)c(=O)c2cc3sccc3n12 | inactive: 90% |
| COc1ccc(Nc2ncnc3onc(-c4ccc(Cl)cc4)c23)cc1Cl | inactive: 122% |
